# Results: PubChem BioAssay AID651820 (National Center for Advancing Translational Sciences (NCATS), 2012)
# Among all 340,000 compounds or so, about 12,000 (3.5%) were called active. This list was built around the results that the source calls inconclusive (neither active nor inactive); the mix of calls is not that of the screen. Calls come from the whole dose curve; as a rule, active = well fitted inhibition curve with a large enough effect; inconclusive = small, poorly fitted or top-dose-only effect, or another doubt; inactive = no such curve, though single readings can be large or run the other way. Potencies of inconclusive entries are left out as doubtful fits. Where a structure was tested more than once in an assay, its records may differ in their call.
# Assay: qHTS Assay for Inhibitors of Hepatitis C Virus (HCV)
# Settings: Huh7.5.1 HCVcc-Cre (HCVcc is cell-culture hepatitis C virus) infection, luciferase reporter, 44 h; series mostly up to 41.8 µM
# Summary of the method: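 Cells seeded at 1,000/well and cultured 4 h, then compounds added followed by HCVcc-Cre virus (~0.5 moi). After 44 h further culture, luciferase substrate was added, plates held 15 min at room temperature, and luminescence read for 15 sec.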
# Potency is the fitted concentration of half-maximal effect; tags give direction and shape of the fitted curve.
row,SMILES,Potency
1,COc1ccc2nc(S(=O)Cc3ncc(C)c(OC)c3C)[nH]c2c1 (stereo unspecified),active: 2.24 µM
2,CCCc1nnc(NC(=O)CCC(=O)NCc2ccccc2)s1,"inconclusive [inhibitor, single point]"
3,O=C(NC1CCN(Cc2ccc(Cl)cc2Cl)CC1)c1ccccc1,"inconclusive [inhibitor, partial curve]"
4,COc1cc(C(=O)N2CCN(Cc3ccc4c(c3)OCO4)CC2)c([N+](=O)[O-])cc1OC,"inconclusive [inhibitor, single point]"
5,COc1ccc(-c2cc(-c3cccs3)c(C#N)c(SCC(=O)NCc3ccccc3OC)n2)cc1,"inconclusive [inhibitor, full curve]"
6,Cc1ccc(S(=O)(=O)N2[C@@H](c3cccc(Cl)c3)C(C(=O)O)=CC[C@H]2c2cccc(Cl)c2)cc1,"inconclusive [inhibitor, full curve]"
7,Cc1ccc(NC(=O)NC2(C(=O)NCc3ccco3)CCCCC2)cc1,"inconclusive [inhibitor, full curve]"
8,Cc1ccc(C(c2nnnn2C(C)(C)C)N(Cc2ccco2)Cc2cccs2)cc1 (stereo unspecified),"inconclusive [inhibitor, single point]"
9,O=C(COc1cc(Cl)c(Cl)cc1Cl)Nc1ccncc1,"inconclusive [inhibitor, single point]"
10,COc1ccccc1NC(=S)NC1CCCCC1,"inconclusive [inhibitor, single point]"
11,O=C1Nc2cc(C(=O)NCCCN3CCCC3)ccc2S/C1=C/c1ccccc1F,"inconclusive [inhibitor, partial curve]"
12,CCCOc1ccccc1N/C(=N/c1nc(C)cc(C)n1)NC(=O)COc1ccc(OC)cc1,"inconclusive [inhibitor, full curve, poor fit]"
13,Nc1nc(N)nc(-c2ccc([N+](=O)[O-])o2)n1,"inconclusive [inhibitor, single point]"
14,C/C(=N\O)c1ccc2c(c1)OCCO2,inactive
15,Cc1c(C(=O)NNC(=S)NCc2ccc(Cl)cc2)oc2ccccc12,inactive
16,Cc1cc(-c2c(C)[nH]n(-c3ccc(Cl)cc3)c2=O)n[nH]1,"inconclusive [inhibitor, single point]"
17,COc1ccc(C(=O)c2nc3ccccc3n2C(C)C)cc1,"inconclusive [inhibitor, single point]"
18,O=C(Nc1ncc(Cc2cccc(C(F)(F)F)c2)s1)C1CCCO1 (stereo unspecified),"inconclusive [inhibitor, single point]"
19,CC(C)(C)C(=O)N1CCN(c2ccc([N+](=O)[O-])cc2-n2cccc2)CC1,"inconclusive [inhibitor, partial curve]"
20,Cc1ccc(OCC(=O)N/N=C\c2c(C)n(C)c3ccccc23)c([N+](=O)[O-])c1,active: 15.8 µM
21,CN(C(=O)CCc1nnc(CCCCc2ccccc2)o1)C1CC(C)(C)NC(C)(C)C1,"inconclusive [inhibitor, full curve]"

row,SMILES,Potency
1,CC(C)C(=O)Nc1nnc(Cc2c[nH]c3ccccc23)s1,"inconclusive [inhibitor, partial curve, poor fit]"
2,CC(=O)c1ccc(N2CCN(C(=O)CCS(=O)(=O)c3ccc4c(c3)NC(=O)CS4)CC2)cc1,inactive
3,CCCn1cc(S(=O)(=O)CC(=O)Nc2ccc(OCC)cc2)c2ccccc21,"inconclusive [inhibitor, single point]"
4,C[C@]12C[C@@H](O)[C@H](O)CC1=CCC1C2CC[C@]2(C)C(=O)CCC12 (stereo partly specified),inactive
5,CCOC(=O)c1c(C)[nH]c(C(=O)OCC(=O)Nc2cc(C)nn2-c2ccccc2)c1C,"inconclusive [inhibitor, full curve]"
6,COc1ccc(CCNC(=S)Nc2cccc(C)c2C)cc1,"inconclusive [inhibitor, partial curve]"
7,CC(C)(C)NC(=O)CN(Cc1cccs1)C(=O)C1COc2ccccc2O1 (stereo unspecified),inactive
8,COc1ccc(-c2cc(C(F)(F)F)nc(-n3ccnc3C)n2)cc1,"inconclusive [inhibitor, partial curve]"
9,CCN(C[C@H]1N[C@@](Cc2ccccc2)(C(=O)OC)[C@H]2C(=O)N(Cc3ccccc3)C(=O)[C@@H]12)S(=O)(=O)c1ccccc1,"inconclusive [inhibitor, partial curve]"
10,CCn1c(C)nc2cc(C(=O)NNC(=S)NC(=O)c3ccccc3)ccc21,"inconclusive [inhibitor, single point]"
11,CCc1cccc2c(/C=N/NC(=O)c3cccc(S(=O)(=O)Nc4ccccc4Cl)c3)c[nH]c12,"inconclusive [inhibitor, partial curve]"
12,CCN(CC)S(=O)(=O)c1ccc(-c2nnc(SCC(=O)N3c4ccccc4CC3C)n2CC)cc1 (stereo unspecified),"inconclusive [inhibitor, single point]"
13,CC(=O)Nc1ccc(S(=O)(=O)N(C)CC(=O)OCC(=O)N2CCN(C(=O)c3ccco3)CC2)cc1,inactive
14,CN(c1ccccc1)S(=O)(=O)c1cccc(C(=O)OCC(=O)NCc2ccco2)c1,inactive
15,Cc1nn(-c2ccccc2)c2ncc(C(=O)c3cc(Cl)ccc3O)cc12,"inconclusive [inhibitor, full curve]"
16,CCOC(=O)c1c(NC(=O)C2=C(C)NC(=S)NC2c2ccc(CC)cc2)sc(C)c1C (stereo unspecified),"inconclusive [inhibitor, partial curve]"
17,COCCN(Cc1cc2cc(C)ccc2[nH]c1=O)S(=O)(=O)c1ccc(Cl)cc1,"inconclusive [inhibitor, single point]"
18,CCC(C)Nc1nc(N)c([N+](=O)[O-])c(Nc2ccccc2OC)n1 (stereo unspecified),active: 12.6 µM
19,COc1ccc(NC(=O)N(C)C[C@H]2Oc3c(NS(=O)(=O)c4cccs4)cccc3C(=O)N([C@@H](C)CO)C[C@@H]2C)cc1,inactive
20,COc1cc(OC)cc(C(=O)Nc2sc3c(c2C(N)=O)CCC3)c1,active: 2 µM
